Assay results reported in PubChem BioAssay AID485364 (National Center for Advancing Translational Sciences (NCATS), 2010).
In all, about 360,000 compounds went through this assay and about 11,000 (3.1%) were called active. The inconclusive results got no clear call from the source; some entries with a clear call stand among them for comparison. Calls come from the whole dose curve; as a rule, active = well fitted inhibition curve with a large enough effect; inconclusive = small, poorly fitted or top-dose-only effect; inactive = no such curve, though single readings can be large or run the other way. No potency is given beside an inconclusive call; the fits are too rough. More than one record can exist for a structure, and the calls need not agree.

These compounds were tested against Schistosoma mansoni thioredoxin glutathione reductase (TGR) (UniProt Q962Y6) (assay: qHTS Assay for the Inhibitors of Schistosoma Mansoni Peroxiredoxins). Details: purified TGR, DTNB reduction, TNB absorbance 405 nm; activity change, negative = inhibition: at 114 µM (top of the series) unless noted.
Summary of the method: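 TGR 20 nM + NADPH 100 uM (dispensed conc.), cpd preinc 15 min RT; start with NADPH (500 uM addition) then DTNB (15 mM addition). Kinetic TNB absorbance, 405 nm filter. Four-parameter Hill fit across titration.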
% is set by controls: 0 for no effect and ±100 for the full control effect; potency is the fitted concentration of half-maximal effect; tags give direction and shape of the fitted curve.
Note: nearly all actives have a fitted effect of over 60% in size.

Structure (SMILES) | Potency | activity change, negative = inhibition
COc1ccc(C(C)=O)cc1COC(=O)CNC(=O)c1cc(C)cc(C)c1 | active: 31.6 µM | 
CCN(Cc1ccncc1)C(=O)c1cc(COc2ccc(F)cc2F)on1 | inconclusive [inhibitor, partial curve] | 
Cc1cc(C)c2oc(-c3ccc(C)c(NC(=S)NC(=O)/C=C/c4ccco4)c3)nc2c1 | inconclusive [inhibitor, partial curve] | 
COc1ccc(C(=O)NC(=O)CSc2nnc(-c3ccco3)n2-c2ccccc2)cc1 | inconclusive [inhibitor, partial curve] | 
COc1ccc(C2Nc3ccccc3C(=O)N2Cc2ccco2)cc1COc1ccc(NC(C)=O)cc1 (stereo unspecified) | inconclusive [inhibitor, partial curve] | 
Cn1cccc1/C=N/N1CCN(c2ccccn2)CC1 | inconclusive [inhibitor, partial curve] | 
COc1ccc(C(C)=O)cc1COC(=O)c1c(C)nn(-c2ccccc2)c1C | inconclusive [inhibitor, full curve, poor fit] | 
CCOc1ccc(C(C)=O)cc1COC(=O)C(C)N=C1NS(=O)(=O)c2ccccc21 (stereo unspecified) | active: 20 µM | 
Cc1cc(C)nc(SCc2ccc(C(=O)NN=C3C4CC5CC(C4)CC3C5)cc2)n1 | inconclusive [inhibitor, single point] | 
CCC(C)(C)n1nnnc1C(c1ccc(C)cc1)N1CCN(Cc2cccnc2)CC1 (stereo unspecified) | inconclusive [inhibitor, partial curve] | 
COc1ccccc1OCC(=O)Nc1ccc(-c2nnc(-c3ccco3)o2)cc1 |  | inactive: -5.75% [at 57.1 µM]
COc1c2ccccc2c(OC)c2ccccc12 |  | inactive: 1.64%
Cc1onc(-c2ccccc2)c1C(=O)O/N=C(\N)c1ccc([N+](=O)[O-])o1 | inconclusive [inhibitor, partial curve] | 
c1cnc2cc(-c3ccsc3)ncc2c1 | inconclusive [inhibitor, partial curve] | 
Cc1ccc(/C(O)=C2/C(=O)C(=O)N(Cc3ccco3)C2c2cccs2)cc1 (stereo unspecified) | inconclusive [inhibitor, partial curve] | 
O=C(Cn1nc(-c2ccco2)ccc1=O)Nc1cc(Cl)ccc1Cl | active: 5.62 µM | 
CN1CCCCC1CCN1c2ccccc2Sc2ccc(S(C)=O)cc21 (stereo unspecified) | inconclusive [inhibitor, single point] | 
CCOC(=O)C1=C(C)OC(N)=C(C#N)C1c1cc(SCC)oc1C (stereo unspecified) | active: 44.7 µM | 
CCn1c(O)c(C#N)c(C)cc1=O | inconclusive [inhibitor, partial curve] | 
CN(C)CCCNC(=S)N(Cc1cccs1)Cc1cc2cc3c(cc2[nH]c1=O)OCCO3 | inconclusive [inhibitor, partial curve] | 
Cc1cccc(NC(=O)CSc2nnc(-c3cnccn3)n2Cc2ccco2)c1 | inconclusive [inhibitor, partial curve] | 
Cn1ccnc1SCC(=O)Nc1ccc(Br)cc1C(F)(F)F | inconclusive [inhibitor, full curve, poor fit] | 
CCOc1ccccc1CN1CCN(Cc2nc3c(s2)CCCC3)CC1CCO (stereo unspecified) | inconclusive [inhibitor, full curve, poor fit] | 

Structure (SMILES) | Potency | activity change, negative = inhibition
CC(=O)Oc1ccc2nc(-c3ccco3)oc(=O)c2c1 | inconclusive [inhibitor, partial curve] | 
COc1ccc(N2C(=O)/C(=C/c3ccc(N(C)C)o3)C(=O)NC2=S)cc1 | inconclusive [inhibitor, partial curve] | 
CN(CCCNC(=O)c1ccccc1F)CCCNC(=O)c1ccccc1F |  | inactive: -0.216%
O=C(Oc1oc(-c2ccco2)nc1C=Nc1ccccc1)c1ccco1 | active: 1.58 µM | 
CCO[C@@H]1OC(C(=O)NCc2ccccc2)=C[C@H](c2ccc(C(F)(F)F)cc2)[C@H]1CCCO |  | inactive: -0.0969%
O=C1C(=O)N(C2CCNCC2)CCN1Cc1ccccc1 | inconclusive [inhibitor, partial curve] | 
Cc1ccc(S(=O)(=O)N2CCCC(N3CCOCC3)C2)cc1Cl (stereo unspecified) | inconclusive [inhibitor, partial curve, poor fit] | 
CCOC(=O)c1cc(S(=O)(=O)N2CCN(C(=O)OCC)CC2)cn1C | inconclusive [inhibitor, partial curve] | 
O=C(Oc1cccccc1=O)c1ccccc1 |  | inactive: -23.4%
COc1ccc([C@H]2CC(=O)C=C(c3ccc(O)cc3)C2)cc1OC |  | inactive: -8.98%
O=C(c1ccc(S(=O)(=O)Cc2ccccc2Cl)c([N+](=O)[O-])c1)N1CCOCC1 | active: 11.2 µM | 
COc1ccc(/C=C(\C#N)c2nc3ccc(C)cc3[nH]2)cc1Oc1ccc(C(F)(F)F)cc1[N+](=O)[O-] |  | inactive: 1.99%
O=C1C(NS(=O)(=O)c2cccs2)=C(N2CCOCC2)C(=O)c2ccccc21 | inconclusive [inhibitor, partial curve] | 
COC(=O)N1CCN(c2ccc(C)c(C)c2)CC1 |  | inactive: 15.2%
NC(=O)C1CCN(c2ncnc3c(-c4ccccc4)nsc23)CC1 |  | inactive: -1.18%
COc1ccc(CN2c3cc(S(=O)(=O)N4CCOCC4)ccc3N3CCCC32)cc1 (stereo unspecified) | inconclusive [inhibitor, partial curve] | 
CC(C)Oc1cccc(C(=O)NC(=S)Nc2ccc(N3CCN(C)CC3)cc2)c1 | active: 44.7 µM | 
CCN(C(=O)c1sc2nc3n(c(=O)c2c1C)CCCCC3)c1ccccc1F | inconclusive [inhibitor, partial curve] | 
CC(C)c1ccc(Nc2nc3ccc(C(=O)c4ccccc4)cc3n3cnnc23)cc1 |  | inactive: 0.22%
Cn1c2c(c(=O)[nH]c1=O)C(c1ccc(O)cc1)C1=C(N2)c2ccccc2C1=O (stereo unspecified) |  | inactive: -6.64%
CC(C)CN(c1ccccc1)S(=O)(=O)c1nnc(NC(=O)c2ccco2)s1 | active: 35.5 µM | 
COc1ccc(-c2ccc(NC(=O)c3ccco3)cc2)nn1 | active: 50.1 µM | 
CC1(C)Cc2nc3sc(C(=O)NCCCO)c(N)c3cc2CO1 |  | inactive: -8.83%
